Measured values published in PubChem BioAssay AID463173 (ICCB-Longwood Screening Facility, Harvard Medical School, 2010).
About 4,300 (8.3%) of roughly 52,000 compounds were called active. No stated cut-off is given here; in the data, active means survival mostly below about 52% (no sharp cut-off); inactive means mostly above about 56%. This is one part of the list.

The compounds below were run on DeltatarO mutant (assay: growth inhibition of S. aureus wild type versus tarO mutant, primary screen, teichoic acid synthesis inhibitors, RN4220, OD600 (AID 463173)). Details: OD600, 18 h, stronger effect = lower value, screened at 18.75 µg/mL (by protocol).
With `O=C(CSc1ncc2c(n1)-c1ccccc1N(Cc1ccc(F)cc1)S2(=O)=O)c1ccc(Br)cc1` the survival was inactive: 65%. With `COc1cc2c(=O)n(Cc3ccccc3)c(=O)n(CC(=O)Nc3cc(C(F)(F)F)ccc3Cl)c2cc1OC` the survival was inactive: 151%. In the case of `O=C(Cn1cccc1C(=O)c1ccccc1)NCc1ccc(F)cc1`, the survival is reported as inactive: 97%. In the case of `CN1C(C(=O)Nc2ccc(OC(F)(F)F)cc2)=CC(c2ccc3c(c2)OCO3)=NS1(=O)=O`, the survival is reported as inactive: 80%. For `CC(C)c1cc(N)cc(C(C)C)c1O`, the survival was inactive: 84%. For `COC(=O)c1cc2oc(C)cc2n1Cc1c(C)cc(C)cc1C`, the survival was inactive: 46%. With `CCN(CC)c1ccc(NS(=O)(=O)c2ccc3c(c2)CCCN3C(C)=O)c(C)c1` the survival was inactive: 79%. In the case of `COc1ccccc1NC(=O)CN(c1ccc(C(C)C)cc1)S(=O)(=O)c1c(C)noc1C`, the survival is reported as inactive: 78%. For `N#Cc1ccc(C(=O)N2CCN(c3nc4ccc(F)cc4s3)CC2)cc1`, the survival was inactive: 72%. `O=C(NC1CCCCC1)c1ccc2c(c1)sc1nc(-c3ccccc3)cn12` was tested, and the survival was inactive: 69%. `CCN(CC)CCN(C(=O)c1ccco1)c1nc2c(C)cccc2s1` was tested, and the survival was inactive: 77%. With `COc1cc2c(cc1OC)C(c1ccc(Cl)cc1)N(c1ccc(C)c(F)c1)C(=O)C2` (centres undefined) the survival was active: 42%. `COc1ccc(-c2oc3ncn4nc(-c5ccc(Cl)cc5)nc4c3c2-c2ccc(OC)cc2)cc1` was tested, and the survival was inactive: 74%. For `CC(C)c1ccc(OCc2cc(=O)n3c4c(sc3n2)CCCC4)cc1`, the survival was inactive: 73%. For `Cc1cccc(NC(=O)CSc2nc3ccc(NC(=O)c4cccs4)cc3s2)c1`, the survival was inactive: 65%. `COc1ccc(OCC(=O)Nc2cc(-c3cccc(Cl)c3)nn2-c2ccccc2)cc1` was tested, and the survival was inactive: 83%. In the case of `O=C(CSc1nc(-c2ccccc2)cc(=O)[nH]1)c1ccccc1`, the survival is reported as inactive: 94%. For `COC(=O)c1ccccc1NC(=O)CSc1nnnn1-c1ccc2c(c1)OCO2`, the survival was inactive: 91%. For `Cc1ccc(NC(=O)Cn2c(-c3ccc4c(c3)OCO4)cn(-c3ccccc3)c2=O)cc1`, the survival was inactive: 68%. For `COc1ccc(-c2c3c(=O)n(C)c(=O)n(C)c3c3c(-c4ccc(C)cc4)nc4ccccc4n23)cc1`, the survival was inactive: 82%. `CCCCCNC(=O)C(=O)NCC(c1ccc2c(c1)OCO2)N1CCOCC1` (centres undefined) was tested, and the survival was inactive: 72%. For `CCC(C(=O)Nc1cccc(C#N)c1)n1c(=O)c(-c2ccccc2NC(C)=O)nc2ccccc21` (centres undefined), the survival was inactive: 100%. In the case of `Cc1ccc(CSc2nc(=O)c3c(n2C)NC(=O)CC3c2ccc(OC(C)C)cc2)cc1` (centres undefined), the survival is reported as inactive: 50%. In the case of `CCN1CCC(N(Cc2cccc(OC)c2)C(=O)Nc2ccc(C)cc2Cl)CC1`, the survival is reported as inactive: 66%. In the case of `Cc1ccc(S(=O)(=O)Nc2cc3c(cc2N2CCOCC2)n(C)c(=O)n3C)c(C)c1`, the survival is reported as inactive: 84%. With `Cc1ccc(Nc2nc(C(=O)NCc3ccco3)cs2)cc1` the survival was inactive: 93%. `Cc1nnc(NC(=O)CCCN2C(=O)/C(=C/c3cccs3)SC2=S)s1` was tested, and the survival was inactive: 55%. For `Cc1ccc2oc(=O)c3cc(C(=O)N(Cc4ccccc4)C(C)C)sc3c2c1`, the survival was inactive: 87%. For `COc1ccc(CNC(=O)CC2N=C3c4ccccc4N=C(SCC(=O)Nc4ccc(N(C)C)cc4)N3C2=O)cc1` (centres undefined), the survival was inactive: 82%. In the case of `Cc1ccc(CN2c3ccccc3S(=O)(=O)c3ccccc32)cc1`, the survival is reported as inactive: 83%. With `COc1cc(CN(C(=O)COc2ccc(C)c(C)c2)c2ccccn2)cc(OC)c1OC` the survival was inactive: 71%. In the case of `COc1ccc(NC(=O)CN(Cc2ccccc2)S(=O)(=O)c2ccc3nc(C)sc3c2)cc1`, the survival is reported as inactive: 83%. For `CCCN(CCC)CCNC(=O)c1cc2c(-c3ccccc3F)nn(C)c2s1`, the survival was inactive: 107%. With `CCN(CC)C(=O)CSc1nnc2c(n1)[nH]c1ccc(C(C)C)cc12` the survival was inactive: 116%. With `COc1cccc(CN(CCO)Cc2ccccc2)c1OC` the survival was inactive: 91%. `Cc1ccc(S(=O)(=O)CCSc2nc(C)cc(C)c2C#N)cc1` was tested, and the survival was inactive: 53%. For `COc1cc(NC(=O)c2cnn(-c3cccc(F)c3)c2C2CCNCC2)cc(OC)c1OC`, the survival was inactive: 102%. With `CCOC(=O)c1cc2c(ccn2-c2ccc(F)cc2)n1CC(=O)N1CCc2ccccc21` the survival was inactive: 100%. For `Cc1cc(C)nc(SC2CCCCC2=O)n1` (centres undefined), the survival was inactive: 104%. For `CCc1nnc(NC(=O)CSCc2cc(=O)c3ccc(C)cc3[nH]2)s1`, the survival was inactive: 98%. `O=C(C1=C(O)C(=O)N(CCN2CCOCC2)C1c1ccccc1)c1ccco1` (centres undefined) was tested, and the survival was inactive: 102%. `Cc1cc(O)c(C(c2ccccc2Cl)N2CCN(c3ccccc3)CC2)c(=O)n1Cc1ccco1` (centres undefined) was tested, and the survival was inactive: 85%. In the case of `O=C(CN(C1CCCCC1)S(=O)(=O)c1ccccc1)NCc1ccco1`, the survival is reported as inactive: 99%. With `Cc1ccc2nc(N(Cc3cccnc3)C(=O)C3COc4ccccc4O3)sc2c1` (centres undefined) the survival was inactive: 94%. In the case of `CCc1ccc(CN(C(=O)c2cc3ccccc3oc2=O)C2CCS(=O)(=O)C2)cc1` (centres undefined), the survival is reported as inactive: 66%. For `Cc1ccc(CSc2cn(CC(=O)N3CCCCC3)c3ccccc23)cc1`, the survival was inactive: 73%. For `CC(=O)c1ccc(NC(=O)c2ncn(-c3ccccc3)n2)cc1`, the survival was active: 34%. With `COc1ccc(Cl)cc1NC(=O)CCC(=O)c1ccc(C)cc1` the survival was inactive: 79%. For `COc1ccc(CNC(=O)COCc2cc(-c3cccs3)on2)cc1OC`, the survival was inactive: 99%. With `CCCCNC(=O)CCCn1c(=O)c2ccccc2n(Cc2ccccc2C)c1=O` the survival was inactive: 82%. In the case of `CCc1c(C)sc2c1CCN(Cc1ccc(F)cc1)C2c1ccccc1` (centres undefined), the survival is reported as inactive: 81%. With `CC(C)(C)NC(=O)COc1ccc(CNc2ccc3c(c2)OCCO3)cc1` the survival was inactive: 87%. In the case of `CCN(CC)CCNC(=O)Cn1ncc2c([nH]c3ccccc32)c1=O`, the survival is reported as inactive: 89%. For `CCCCN(CC)CCCNC(=O)c1cc2c(-c3ccc(OC)c(OC)c3)nn(C)c2s1`, the survival was inactive: 140%. For `COCCNC(=O)C1CCCN(S(=O)(=O)c2ccc3c(ccn3C)c2)C1` (centres undefined), the survival was inactive: 55%. `O=C(NCc1ccc(F)cc1)c1ccc(NC(=O)N2CC3CCCN3c3ccccc32)cc1` (centres undefined) was tested, and the survival was inactive: 113%. For `CCOc1ccc(-c2cnc(NCc3ccc(OC)cc3OC)n2C)cc1`, the survival was active: 37%. For `Cc1ccc(NC(=O)c2cccn2-c2nnc(N3CCCCC3)s2)cc1Cl`, the survival was inactive: 69%. For `Cn1nc(C(=O)N2CCN(c3ccccc3F)CC2)c2c1-c1ccccc1SC2`, the survival was active: 32%. For `CN(C)CCCNc1oc(/C=C/c2ccc(F)cc2)nc1C#N`, the survival was inactive: 89%. `Cc1ccc(NC(=O)CCCn2c(=O)c3cccn3c3cccnc32)c(Cl)c1` was tested, and the survival was inactive: 95%. In the case of `O=c1oc2c3c(ccc2c2ccccc12)OCN(Cc1cccc(Cl)c1)C3`, the survival is reported as inactive: 64%. With `Cc1c(CCNC(=O)Cc2ccccc2)sc2nc(-c3ccc(F)cc3)nn12` the survival was inactive: 84%. For `CCOc1ccccc1N(C)C(=O)C1CCCN(c2ncnc3onc(-c4ccc(F)cc4)c23)C1` (centres undefined), the survival was inactive: 74%. In the case of `Cc1cc(C)c(NC(=O)CSc2nccn2Cc2ccco2)c(C)c1`, the survival is reported as inactive: 76%. With `O=C(CN1CCN(Cc2ccc(Cl)cc2)C1=O)NCc1ccc(F)cc1` the survival was inactive: 128%. For `CCn1cc(C(=O)NCCc2ccccc2)c(=O)c2cc(S(=O)(=O)N(C)C3CCCCC3)ccc21`, the survival was inactive: 79%. In the case of `COc1ccc(-c2noc(-c3ccc(NCc4ccccc4OC)c([N+](=O)[O-])c3)n2)cc1`, the survival is reported as inactive: 57%. With `Cc1ccc(C2=Nc3ccccc3N(CC(=O)Nc3cccc(F)c3)C(=O)C2)cc1C` the survival was inactive: 79%. `CC(=O)c1[nH]c(C)c(C(=O)NCCc2ccc(C)cc2)c1C` was tested, and the survival was inactive: 52%. For `CC(=O)Nc1cccc(C(=O)NCc2ccc3c(c2)CCN3C(C)=O)c1`, the survival was inactive: 84%. For `CCOc1ccc(NC(=O)C2CCC(N3C(=O)C4CC=CCC4C3=O)CC2)cc1` (centres undefined), the survival was inactive: 77%. With `Cc1cc(C)c(NC(=O)CCn2c(=O)c3cccn3c3ccccc32)c(C)c1` the survival was inactive: 49%. For `CCN1CCN(C(c2ccc(SC)cc2)c2c(O)cc(C)n(Cc3ccco3)c2=O)CC1` (centres undefined), the survival was inactive: 99%. `COc1ccccc1NC(=O)C1CCN(S(=O)(=O)c2ccc3[nH]c4c(c3c2)CCCCC4)CC1` was tested, and the survival was inactive: 99%. With `Cc1nn(-c2ccccc2)c2c1cc1c(=O)n(C)c(=O)nc-1n2-c1cccc(Cl)c1` the survival was inactive: 79%. For `Oc1ccc(-c2nc(-c3ccccc3)c(-c3ccc(Br)cc3)[nH]2)cc1`, the survival was active: -4%. `COc1ccc(-c2cc(=O)c3cc(OCC(=O)OC(C)C)ccc3o2)cc1` was tested, and the survival was inactive: 124%. With `COCCCNC(=O)CSc1nc2cc3c(cc2c(=O)n1CCCCCC(=O)NCc1ccc2c(c1)OCO2)OCO3` the survival was inactive: 79%. For `Cc1ccccc1-c1nnc(N(C(=O)C2CC2)C2CCCC2)s1`, the survival was inactive: 112%. `CCCCNC(=O)C1CCC(CNS(=O)(=O)c2ccc(C)cc2)CC1` (centres undefined) was tested, and the survival was inactive: 91%. `Cc1nc(NC(=O)c2c(-c3ccccc3)c(-c3ccccc3)nn(C)c2=O)sc1C` was tested, and the survival was inactive: 48%. In the case of `COc1ccc(CNC(=O)CN2C(=O)COc3ccc(S(=O)(=O)N4CCC(C)CC4)cc32)cc1`, the survival is reported as inactive: 86%. `Cc1ccc(NC(=O)Cn2c(=O)n(CCCCC(=O)NCCc3ccc(Cl)cc3)c(=O)c3ccccc32)cc1` was tested, and the survival was inactive: 100%. `O=C(CSC1=NCCS1)Nc1ccnc2ccccc12` was tested, and the survival was inactive: 86%. With `COCCCN1C(=O)c2[nH]nc(-c3ccccc3O)c2C1c1ccc(OCc2ccccc2)cc1` (centres undefined) the survival was active: 8%. `COc1cc(NC(=O)CCS(=O)(=O)c2nc(-c3ccc4c(c3)OCO4)cc(C(F)(F)F)n2)cc(OC)c1OC` was tested, and the survival was inactive: 81%. With `COc1ccc2[nH]cc(NC(=O)NCc3ccncc3)c(=O)c2c1` the survival was inactive: 101%. `Cc1cccc(N2CCN(C(=O)CN3C(=O)COc4ccc(S(=O)(=O)N5CCOCC5)cc43)CC2)c1C` was tested, and the survival was inactive: 87%.
